# Laboratory results from PubChem BioAssay AID504832 (National Center for Advancing Translational Sciences (NCATS), 2011).
# About 18,000 (5.8%) of roughly 310,000 compounds were called active. The shares of active, inactive and inconclusive entries below differ from those in the screen. Calls follow the shape of the dose curve; as a rule, active = well fitted inhibition curve with a large enough effect; inconclusive = small, poorly fitted or top-dose-only effect, or another doubt; inactive = no such curve, though single readings can be large or run the other way. No potency is given beside an inconclusive call; the fits are too rough.
# Assay: Primary qHTS for delayed death inhibitors of the malarial parasite plastid, 48 hour incubation
# Details: P. falciparum luciferase growth in erythrocytes; series mostly up to 28.7 µM
# In short: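 Luminescence readout; reporter = integrated firefly luciferase in P. falciparum. RBC culture at 2% hematocrit, 0.1% parasitemia final, 37 C/5% CO2; decreased signal taken as growth inhibition.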
# Potency is read from the fitted curve at half-maximal effect; tags tell the direction and shape of the fitted curve.
row,SMILES,Potency
1,Cc1nc(SCN2C(=O)c3ccccc3C2=O)n[nH]1,inactive
2,CCCC(=O)NC(=S)Nc1cccc(Cl)c1N1CCCC1,"inconclusive [inhibitor, partial curve]"
3,O=C(c1ccc(-c2ccccc2)cc1)N1CCN(c2ccccc2)CC1,inactive
4,CC(C)(C)c1ccc(-c2noc(CNC(=O)c3ccco3)n2)cc1,"inconclusive [inhibitor, partial curve, poor fit]"
5,O=C(O)c1ccc(-c2nc(-c3ccccc3)c(-c3cccs3)[nH]2)cc1,"inconclusive [inhibitor, single point]"
6,CC1CCCN(c2ccc(C(=O)Nc3ccc4c(c3)OCO4)cc2[N+](=O)[O-])C1 (centres undefined),"inconclusive [inhibitor, partial curve, poor fit]"
7,COc1ccc(-c2nnn(CC(=O)N(CC(=O)NC3CCCC3)Cc3cccs3)n2)cc1OC,inactive
8,O=S(=O)(c1ccccc1)c1cnc(-c2ccccc2)nc1N1CCCCC1,"inconclusive [inhibitor, single point]"
9,N/C(=N\OC(=O)c1cc(-c2ccccc2)nc2ccccc12)c1cccnc1,"inconclusive [inhibitor, partial curve, poor fit]"
10,O=C(NC1CCCN(C2Cc3ccccc3C2)C1)c1ccc(F)cc1Cl (centres undefined),inactive
11,O=C(CN1CCN(S(=O)(=O)/C=C/c2ccccc2)CC1)Nc1ccccc1N1CCOCC1,"inconclusive [inhibitor, single point]"
12,C=CCC1(CC=C)CCCN1C(=O)CC1C(=O)NCCN1Cc1cccc(OC)c1 (centres undefined),"inconclusive [inhibitor, partial curve]"
13,CCC(C(=O)N1CCC(N2CCCCC2)CC1)n1nc(C)c2sc3ccccc3c2c1=O (centres undefined),"inconclusive [inhibitor, single point]"
14,COc1ccc(NS(=O)(=O)c2cccc(NC(=O)C3=NN(c4ccccc4)C(=O)CC3)c2)cc1,"inconclusive [inhibitor, partial curve]"
15,O=[N+]([O-])c1ccc(S(=O)(=O)NCC(c2cccnc2)N2CCOCC2)cc1 (centres undefined),inactive
16,O=C(c1cc2ccccc2o1)N1CCN=C1SCc1cccnc1,inactive
17,COCc1cc(C)nc(SCC(=O)N2CCC(C)CC2)c1C#N,"inconclusive [inhibitor, single point]"
18,COc1ccc(CNC(=O)CN(C(=O)CCC(=O)Nc2ccccn2)c2cccc(C)c2C)cc1,"inconclusive [inhibitor, single point]"
19,CC(C)(c1ccccc1)c1ccc(OCCCN2CCNCC2)cc1,"inconclusive [inhibitor, single point]"
